Hit rate of the full screen: of about 220,000 compounds, about 5,700 (2.6%) were called active. Inconclusive results, whose numbers are uncertain, are shown with a selection of clear calls. Calls follow the shape of the dose curve; as a rule, active = well fitted inhibition curve with a large enough effect; inconclusive = small, poorly fitted or top-dose-only effect; inactive = no such curve, though single readings can be large or run the other way. Potencies beside an inconclusive call are fits to weak or partial responses and may not hold up.
These molecules were tested against Lysine-specific demethylase 5B (Homo sapiens) (UniProt Q9UGL1) (assay: Primary screen for KDM5B Histone Demethylases FDH-coupled qHTS). Conditions: FDH-coupled NADH fluorescence (FDH is formaldehyde dehydrogenase); activity change, negative = inhibition: at 57.7 µM (top of the series) unless noted.
Chain of UniProt Q9UGL1 (Q9UGL1 whole entry, looked up): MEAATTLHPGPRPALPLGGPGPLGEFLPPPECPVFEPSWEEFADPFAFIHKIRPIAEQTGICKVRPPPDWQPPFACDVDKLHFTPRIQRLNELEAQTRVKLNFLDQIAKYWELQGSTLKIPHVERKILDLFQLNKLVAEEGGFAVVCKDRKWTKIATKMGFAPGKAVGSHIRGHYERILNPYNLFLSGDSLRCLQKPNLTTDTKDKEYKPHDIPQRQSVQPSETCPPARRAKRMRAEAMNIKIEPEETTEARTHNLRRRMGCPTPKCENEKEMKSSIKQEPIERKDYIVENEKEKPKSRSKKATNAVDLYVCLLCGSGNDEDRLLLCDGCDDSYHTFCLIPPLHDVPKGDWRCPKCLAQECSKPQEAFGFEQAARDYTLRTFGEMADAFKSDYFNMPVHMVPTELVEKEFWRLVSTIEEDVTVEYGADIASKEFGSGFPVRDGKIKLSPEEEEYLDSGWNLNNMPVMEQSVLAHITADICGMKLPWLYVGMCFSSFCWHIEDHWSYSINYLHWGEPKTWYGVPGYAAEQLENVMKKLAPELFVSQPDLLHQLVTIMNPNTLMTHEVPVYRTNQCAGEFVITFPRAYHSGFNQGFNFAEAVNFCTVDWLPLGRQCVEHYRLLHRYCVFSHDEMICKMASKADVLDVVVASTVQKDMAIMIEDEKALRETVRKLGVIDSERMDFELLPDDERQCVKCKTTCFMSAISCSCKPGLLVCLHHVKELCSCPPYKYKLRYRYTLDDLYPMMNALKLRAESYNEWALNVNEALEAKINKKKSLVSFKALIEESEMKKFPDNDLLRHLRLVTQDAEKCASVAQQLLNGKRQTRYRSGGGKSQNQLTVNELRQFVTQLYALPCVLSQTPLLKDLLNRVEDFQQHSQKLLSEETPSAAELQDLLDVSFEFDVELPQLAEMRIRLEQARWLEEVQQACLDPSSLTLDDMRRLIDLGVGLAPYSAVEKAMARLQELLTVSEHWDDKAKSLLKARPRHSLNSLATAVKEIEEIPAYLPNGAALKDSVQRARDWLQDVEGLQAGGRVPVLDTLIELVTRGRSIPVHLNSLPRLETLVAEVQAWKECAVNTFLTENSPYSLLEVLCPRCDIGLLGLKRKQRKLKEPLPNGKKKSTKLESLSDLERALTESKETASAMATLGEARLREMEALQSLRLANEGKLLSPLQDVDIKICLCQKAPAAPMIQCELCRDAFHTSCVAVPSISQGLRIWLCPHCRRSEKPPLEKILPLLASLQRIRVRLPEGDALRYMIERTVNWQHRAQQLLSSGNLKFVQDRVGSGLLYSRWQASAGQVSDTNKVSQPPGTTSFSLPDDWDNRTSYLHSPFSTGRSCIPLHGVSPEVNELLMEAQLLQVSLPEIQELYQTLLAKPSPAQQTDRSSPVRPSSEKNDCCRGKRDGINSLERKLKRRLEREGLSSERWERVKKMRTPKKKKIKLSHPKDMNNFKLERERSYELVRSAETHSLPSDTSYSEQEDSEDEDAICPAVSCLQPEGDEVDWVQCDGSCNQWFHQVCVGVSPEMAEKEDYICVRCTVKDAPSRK
How it was run: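 Measured: NADH fluorescence change, 30 min, RT. System: KDM5BΔAP 200 nM final, H3K4me3 peptide, α-KG, Fe(II), ascorbate, NAD⁺ plus FDH, pH 7.5 HEPES. Compounds: titrated, 10 min pre-incubation with enzyme.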
With `O=[S+]([O-])(Nc1cccnc1)c1ccc2c(c1)OCCN(Cc1cccs1)C2` the Potency was “inactive”. In the case of `CC(Sc1nc(N)cc(N)n1)C(=O)c1ccc(Br)cc1` (stereo unspecified), the Potency was “inactive”. `O=C(NCc1ccc(C(=O)N2CCCCC2)cc1)c1cc2ccccc2oc1=O` was tested, and the Potency was inconclusive: 2 µM [inhibitor, full curve, poor fit]. In the case of `O=C(CC(NCc1cccnc1)C(=O)O)Nc1ccc(O)cc1` (stereo unspecified), the Potency was inconclusive: 28.2 µM [inhibitor, single point]. In the case of `CCN(C(=O)CSc1nc2ccccc2n1CC(=O)N1CCCC(C)C1)c1ccccc1` (stereo unspecified), the Potency was inconclusive: 2.82 µM [inhibitor, full curve, poor fit]. In the case of `C[S+](=O)([O-])N1Cc2ccccc2OC2(CCN(C(=O)c3cccc4[nH]ccc34)CC2)C1`, the Potency was inconclusive: 50.1 µM [inhibitor, partial curve, poor fit]. In the case of `CC(=O)Nc1ccc(-c2nc(-c3ccc4c(c3)CCC4)cs2)cc1`, the Potency was inconclusive: 31.6 µM [inhibitor, single point]. `Fc1ccc(Nc2c(-c3ccco3)nc3ccccn23)cc1` was tested, and the Potency was inconclusive: 35.5 µM [inhibitor, partial curve, poor fit]. In the case of `Cc1cccc(CNC(=O)CSc2nc3ccccc3nc2C)c1`, the Potency was “inactive”. With `COc1cc(C2C3CCCCC3(O)CCN2Cc2ccccc2Cl)ccc1O` (stereo unspecified) the Potency was “inactive”. For `O=C(CCSc1nc2cc(Cl)ccc2s1)NC1CCCCC1`, the Potency was “inactive”. In the case of `CCOc1ccc(NC(=O)Cn2cc(C(=O)c3ccccc3)c(=O)c3cc4c(cc32)OCCO4)cc1`, the Potency was “inactive”. In the case of `CCOc1ccc(S(=O)(=O)Nc2nc3ccccc3nc2NC2CC(C)(C)NC(C)(C)C2)cc1`, the Potency was inconclusive: 35.5 µM [inhibitor, partial curve, poor fit]. With `Cc1ccc(CNC(=O)Cc2nc(-c3cccs3)oc2C)cc1` the Potency was inconclusive: 31.6 µM [inhibitor, partial curve, poor fit]. In the case of `Cc1ccc(C)c(N2CCN(C(=O)c3nn(C)c4c3CS(=O)(=O)c3ccccc3-4)CC2)c1`, the Potency was inconclusive: 28.2 µM [inhibitor, single point]. `O=C(CCCc1nc2ccccc2s1)N1CCc2c(nc3cc(-c4ccccc4)[nH]n3c2=O)C1` was tested, and the Potency was inconclusive: 31.6 µM [inhibitor, partial curve, poor fit]. For `CCCCNC(=O)CC1N=C2c3ccccc3N=C(SCC(=O)NCc3ccccc3Cl)N2C1=O` (stereo unspecified), the Potency was “inactive”. For `O=C(NC1CCCc2c1[nH]c1ccccc21)c1ccccc1` (stereo unspecified), the Potency was inconclusive: 28.2 µM [inhibitor, partial curve, poor fit]. In the case of `COC(=O)c1cccc(NC(=O)C2CCCN(C(=O)c3ccc(OC)c4ccccc34)C2)c1` (stereo unspecified), the Potency was “inactive”. For `O=C(c1cccc(O)c1)N1CCNc2cnc(Nc3cccc(F)c3)nc2C1`, the Potency was inconclusive: 44.7 µM [inhibitor, partial curve, poor fit]. In the case of `CN(Cc1ccccc1)C(=O)Cc1cccn1-c1ccc(F)cc1`, the Potency was inconclusive: 17.8 µM [inhibitor, partial curve, poor fit]. `CC(C)(Oc1ccc(Cl)cc1)C(=O)Nc1nnc2n1CCS2` was tested, and the Potency was inconclusive: 15.8 µM [inhibitor, partial curve, poor fit]. For `CC(=O)N1CCN(c2nc3c(s2)CC(C(=O)NCc2ccc(C(C)C)cc2)CC3)CC1` (stereo unspecified), the Potency was “inactive”. `COc1ccc(OCC(=O)Nc2ncc(-c3ccc(OC)nc3)c3c2OCC3)cc1` was tested, and the Potency was “inactive”. In the case of `CC(=O)Nc1ccc(NC(=O)CCc2c(C)nc3c(c(C)nn3-c3ccccc3)c2C)cc1`, the Potency was inconclusive: 39.8 µM [inhibitor, single point]. `Cc1noc(-c2cccs2)c1C(=O)NCCCCc1ccccc1` was tested, and the Potency was active: 31.6 µM. For `COc1ccc(Nc2nc(N3CCN(c4ccc(F)cc4)CC3)nc3c2cnn3C)cc1`, the Potency was inconclusive: 31.6 µM [inhibitor, partial curve, poor fit]. `CC(=O)Nc1cc(F)ccc1-c1csc(NC(=O)CCc2ccco2)n1` was tested, and the Potency was “inactive”. With `COC(=O)c1cccc(CN2C(=O)SC(Nc3ccc(Cl)cc3)C2=O)c1` (stereo unspecified) the Potency was inconclusive: 25.1 µM [inhibitor, single point]. In the case of `CCOc1ccc(-c2ccnc(N3CCC(NC(C)=O)CC3)n2)cc1C(=O)O`, the Potency was active: 31.6 µM. `COc1ccc(Nc2c3c(nc4nncn24)CCC3)cc1Cl` was tested, and the activity change, negative = inhibition was inconclusive: -44.4% [inhibitor]. `C=CCN1CCN(C(=O)/C=C/c2ccccc2)CC1` was tested, and the Potency was “inactive”. `Cc1ccc(-c2cc(C(=O)NC(C)C)c3ccccc3n2)cc1C` was tested, and the Potency was inconclusive: 1.78 µM [inhibitor, full curve, poor fit]. With `O=C(O)c1ccc(CN2Cc3[nH]cnc3C[C@H]2c2nc(-c3ccncc3)no2)cc1` the Potency was inconclusive: 25.1 µM [inhibitor, partial curve, poor fit]. For `CCCCCn1nc(C(=O)Oc2ccc(C(=O)CC)cc2)c2ccccc2c1=O`, the Potency was “inactive”. In the case of `O=c1c2ccccc2nc(N2CCN(c3cccc(Cl)c3)CC2)n1-c1ccccc1`, the Potency was inconclusive: 35.5 µM [inhibitor, partial curve, poor fit]. `CCCCCCNC(=O)c1cc(N)nc(Cl)c1` was tested, and the Potency was inconclusive: 25.1 µM [inhibitor, partial curve, poor fit]. With `Cc1cccc(-c2cc(Nc3ccc(SC#N)cc3)nc(C)n2)c1` the Potency was inconclusive: 28.2 µM [inhibitor, partial curve, poor fit]. With `Cn1cc(-c2cc(-c3cnn(C)c3)[nH]n2)cn1` the Potency was “inactive”. For `COc1ccc(NC(=O)Cn2ccc3cc(Cl)ccc32)cc1`, the Potency was “inactive”. In the case of `O=Cc1c(-c2ccc(Br)cc2)[nH]c2ccccc12`, the Potency was inconclusive: 39.8 µM [inhibitor, single point]. In the case of `O=C(c1ccco1)N1CCC2(CC1)CN(Cc1ccccc1)CC2CO` (stereo unspecified), the Potency was inconclusive: 28.2 µM [inhibitor, partial curve, poor fit]. For `CCCNc1c(NC(=O)c2cccc(C)c2)c(=O)oc2ccccc12`, the Potency was “inactive”. For `COCc1nc2nc(-c3ccccc3)c(Nc3ccc(F)cc3)cc2n1C`, the Potency was active: 31.6 µM. In the case of `O=C(c1cn2c(n1)CN([S+](=O)([O-])c1cccc(C(F)(F)F)c1)CC2)N1CCOCC1`, the Potency was “inactive”. In the case of `N#Cc1nc(COc2ccc(F)cc2)oc1NCCN1CCOCC1`, the Potency was inconclusive: 22.4 µM [inhibitor, partial curve, poor fit]. For `N#Cc1nc(-c2ccccc2)oc1N1CCN(C(=O)c2cccs2)CC1`, the Potency was inconclusive: 35.5 µM [inhibitor, partial curve, poor fit]. With `Brc1ccc(CN2CCC(c3nc4ccncc4[nH]3)C2)cc1` (stereo unspecified) the Potency was inconclusive: 22.4 µM [inhibitor, single point]. `Cc1noc(C)c1CN1CCc2nc(C(=O)Nc3cccc(C(F)(F)F)c3)oc2CC1` was tested, and the Potency was active: 25.1 µM. With `Cc1ccc(N2CCN(C(=O)c3noc4c3CCc3sccc3-4)CC2)c(C)c1` the Potency was “inactive”. For `O=C(NCCC1=CCCCC1)c1ccc2c(c1)N(Cc1ccc(Cl)cc1)C(=O)c1ccccc1S2(=O)=O`, the Potency was inconclusive: 15.8 µM [inhibitor, partial curve, poor fit]. `COc1cccc2[nH]c(C(=O)NCc3ccccc3)cc12` was tested, and the Potency was inconclusive: 17.8 µM [inhibitor, partial curve, poor fit]. In the case of `Cc1cc(SCC(=O)NN2C(=O)NC3(CCC(C)CC3)C2=O)nc2c(C)cccc12` (stereo unspecified), the Potency was “inactive”. `CN(C)C1CCN(Cc2cc3cc4c(cc3nc2-c2ccc(Cl)cc2)OCO4)C1` (stereo unspecified) was tested, and the Potency was inconclusive: 15.8 µM [inhibitor, single point]. With `O=C1CO[C@H]2CCN(CCCc3ccccc3)CC[C@@H]2N1c1ccccc1` the Potency was inconclusive: 11.2 µM [inhibitor, partial curve, poor fit]. In the case of `CCOc1ccc(NC(=O)CCn2nc(C)c(S(=O)(=O)N3CCCCC3)c2C)cc1`, the Potency was inconclusive: 28.2 µM [inhibitor, partial curve, poor fit]. `O=C(c1ccc(Cl)cc1)N1CCC(n2cc(-c3ccncc3)[nH]c2=O)CC1` was tested, and the Potency was inconclusive: 28.2 µM [inhibitor, full curve, poor fit]. For `CCN1c2ccccc2-c2nc(SCC(=O)Nc3cc(F)ccc3F)ncc2S1(=O)=O`, the Potency was inconclusive: 35.5 µM [inhibitor, partial curve, poor fit]. For `Cn1cccc1C(=O)N[C@H]1C[C@H]2C(=O)Nc3ccc(/C=C/c4ccccc4)cc3C(=O)N2C1`, the Potency was inconclusive: 6.31 µM [inhibitor, partial curve, poor fit]. In the case of `Cc1ccc(-c2nnc(Nc3cccc(Br)c3)c3ccccc23)cc1S(=O)(=O)NCC1CCCO1` (stereo unspecified), the Potency was inconclusive: 25.1 µM [inhibitor, partial curve, poor fit]. `CCC(C(=O)Nc1cccc(C#N)c1)n1nc(-c2ccccc2)ccc1=O` (stereo unspecified) was tested, and the Potency was inconclusive: 17.8 µM [inhibitor, partial curve, poor fit]. In the case of `O=C(NCCN1CCOCC1)c1ccc2nc(-c3ccccc3)cn2c1`, the Potency was active: 28.2 µM. In the case of `COc1ccccc1[C@@H]1CN(C(=O)c2cc(C(C)C)[nH]n2)C[C@H]1C(=O)O`, the Potency was inconclusive: 0.891 µM [inhibitor, full curve, poor fit]. `COc1ccc(NC(=O)c2oc3ccccc3c2NC(=O)COc2ccc(F)cc2)c(OC)c1` was tested, and the activity change, negative = inhibition was inconclusive: -31.5% [inhibitor]. In the case of `COc1cc(OC)c2c(C)c(CC(=O)Nc3ccc(F)cc3)c(=O)oc2c1`, the Potency was inconclusive: 2 µM [inhibitor, full curve, poor fit]. `O=C(COc1ccc2c(=O)c(-c3ccccc3)coc2c1)NCCC1=CCCCC1` was tested, and the Potency was “inactive”.

— PubChem BioAssay AID1347165 (National Center for Advancing Translational Sciences (NCATS), 2019)
Also: nearly all actives have a fitted effect of over 70% in size.
For activity change, negative = inhibition in this document: 0% is about no effect.
Potency is read from the fitted curve at half-maximal effect; tags tell the direction and shape of the fitted curve.
